Experimental findings from a collection of fitness landscapes (doi:10.1126/science.1257360) are described below.

Sequences and labels used below:
B1: PhoQ; a variant is named by its letters at X, in order, P23837 (parent)
chain: MKKLLRLFFPLSLRVRFLLATAAVVLVLSLAYGMVALIGYSVSFDKTTFRLLRGESNLFYTLAKWENNKLHVELPENIDKQSPTMTLIYDENGQLLWAQRDVPWLMKMIQPDWLKSNGFHEIEADVNDTSLLLSGDHSIQQQLQEVREDDDDAEMTHSVAVNVYPATSRMPKLTIVVVDTIPVELKSSYMVWSWFIYVLSANLLLVIPLLWVAAWWSLRPIEALAKEVRELEEHNRELLNPATTRELTSLVRNLNRLLKSERERYDKYRTTLTDLTHSLKTPLXXLQXXLRSLRSEKMSVSDAEPVMLEQISRISQQIGYYLHRASMRGGTLLSRELHPVAPLLDNLTSALNKVYQRKGVNISLDISPEISFVGEQNDFVEVMGNVLDNACKYCLEFVEISARQTDEHLYIVVEDDGPGIPLSKREVIFDRGQRVDTLRPGQGVGLAVAREITEQYEGKIVAGESMLGGARMEVIFGRQHSAPKDE

This is one part of the list. Some results are limits rather than exact numbers.

The variants in the test derive from B1. Put plainly: enrichment ratio after two sorts for PhoP signalling (ratio (wild type AVST 3.29)); higher = more functional. Particulars: with PhoP (E. coli).
In the case of RPYQ, the enrichment ratio was ≤ 0.25.

In the case of VHFN, the enrichment ratio is ≤ 0.25.

With KAVP, the enrichment ratio was ≤ 0.25.

QIKL: the enrichment ratio is ≤ 0.25.

As for PEVQ, the enrichment ratio is ≤ 0.25.

RYWT: the enrichment ratio is ≤ 0.25.

As to ISPE, the enrichment ratio is ≤ 0.25.

Regarding EEFD, the enrichment ratio was ≤ 0.25.

On to LDWC, for which the enrichment ratio was ≤ 0.25.

For AYCS, the enrichment ratio is ≤ 0.25.

For the variant PNGD, the enrichment ratio was ≤ 0.25.

As for ANPN, the enrichment ratio is ≤ 0.25.

For the variant IMCW, the enrichment ratio is ≤ 0.25.

As for ATFL, the enrichment ratio was ≤ 0.25.

For the variant FVTW, the enrichment ratio is ≤ 0.25.

As to VDKD, the enrichment ratio is ≤ 0.25.

As for AQVF, the enrichment ratio was 7.77.

Consider VDKK, for which the enrichment ratio was ≤ 0.25.

WHTI: the enrichment ratio was ≤ 0.25.

With VTSN, the enrichment ratio is ≤ 0.25.

As for HLVM, the enrichment ratio is ≤ 0.25.

Take NWTH: the enrichment ratio is ≤ 0.25.

In the case of RALD, the enrichment ratio was ≤ 0.25.

On to SRLF, for which the enrichment ratio is ≤ 0.25.

On to WKIV, for which the enrichment ratio was ≤ 0.25.

In the case of YTMD, the enrichment ratio was ≤ 0.25.

NASC: the enrichment ratio is ≤ 0.25.

Consider RAHS, for which the enrichment ratio is ≤ 0.25.

As for LFEG, the enrichment ratio is ≤ 0.25.

Turning to QTSP, the enrichment ratio was ≤ 0.25.

As for SPPE, the enrichment ratio is ≤ 0.25.

On to KQKT, for which the enrichment ratio was ≤ 0.25.

As for NYHM, the enrichment ratio is ≤ 0.25.

For WIWI, the enrichment ratio was ≤ 0.25.

With RARQ, the enrichment ratio was ≤ 0.25.

Turning to GMFD, the enrichment ratio is ≤ 0.25.

As for ADWP, the enrichment ratio was ≤ 0.25.

As for NYFK, the enrichment ratio was ≤ 0.25.

As to KPAV, the enrichment ratio is ≤ 0.25.

Regarding DRND, the enrichment ratio is ≤ 0.25.

Take PGYT: the enrichment ratio was ≤ 0.25.

With NQVC, the enrichment ratio was ≤ 0.25.

With NGKA, the enrichment ratio is ≤ 0.25.

With DNRQ, the enrichment ratio was ≤ 0.25.

Consider NNYV, for which the enrichment ratio is ≤ 0.25.

Consider SMDK, for which the enrichment ratio is ≤ 0.25.

Take PFGE: the enrichment ratio is ≤ 0.25.

For IHEC, the enrichment ratio was ≤ 0.25.

Take HPFC: the enrichment ratio was ≤ 0.25.

For YFKW, the enrichment ratio is ≤ 0.25.

As to HYNL, the enrichment ratio was ≤ 0.25.

Regarding MLNT, the enrichment ratio was ≤ 0.25.

EYAN: the enrichment ratio is ≤ 0.25.

SATG: the enrichment ratio came out at 9.7.

As to AMDI, the enrichment ratio is ≤ 0.25.

For the variant WAKH, the enrichment ratio was ≤ 0.25.

For MFGG, the enrichment ratio is ≤ 0.25.

On to MDHI, for which the enrichment ratio is ≤ 0.25.

For LYNG, the enrichment ratio was ≤ 0.25.

Regarding SVIV, the enrichment ratio was 0.252.

As for DLFE, the enrichment ratio is ≤ 0.25.

Regarding AHMY, the enrichment ratio was 0.614.

Turning to DKKA, the enrichment ratio is ≤ 0.25.

Consider WEIQ, for which the enrichment ratio was ≤ 0.25.

As to DNCT, the enrichment ratio is ≤ 0.25.

Regarding RPYA, the enrichment ratio is ≤ 0.25.

In the case of WDFF, the enrichment ratio is ≤ 0.25.

Take VQDP: the enrichment ratio is ≤ 0.25.

Turning to RTRH, the enrichment ratio was ≤ 0.25.

In the case of VIYI, the enrichment ratio was ≤ 0.25.

Turning to DIGW, the enrichment ratio was ≤ 0.25.

Turning to MGRR, the enrichment ratio was ≤ 0.25.

VKVH: the enrichment ratio was ≤ 0.25.

As for NTMK, the enrichment ratio is ≤ 0.25.

Consider NGWD, for which the enrichment ratio is ≤ 0.25.

Turning to VFSH, the enrichment ratio was ≤ 0.25.

Regarding AESN, the enrichment ratio amounted to 11.

Consider RVES, for which the enrichment ratio was ≤ 0.25.

On to ESQI, for which the enrichment ratio was ≤ 0.25.

With HLFC, the enrichment ratio was ≤ 0.25.

Regarding IPNF, the enrichment ratio was ≤ 0.25.

TGEG: the enrichment ratio was ≤ 0.25.

WPKY: the enrichment ratio is ≤ 0.25.

IAQG: the enrichment ratio was ≤ 0.25.

For the variant IIRK, the enrichment ratio is ≤ 0.25.

WVWY: the enrichment ratio was ≤ 0.25.

In the case of EAHC, the enrichment ratio is ≤ 0.25.

Consider LGAI, for which the enrichment ratio is ≤ 0.25.

Take DLWF: the enrichment ratio was ≤ 0.25.

Turning to NDHK, the enrichment ratio is ≤ 0.25.

Turning to KPYP, the enrichment ratio is ≤ 0.25.

Consider IRIE, for which the enrichment ratio was ≤ 0.25.

Consider DHWI, for which the enrichment ratio was ≤ 0.25.

For the variant DVQA, the enrichment ratio was ≤ 0.25.

Consider LIDG, for which the enrichment ratio was ≤ 0.25.

On to IWNA, for which the enrichment ratio is ≤ 0.25.

Regarding VHYC, the enrichment ratio is ≤ 0.25.

On to FNGC, for which the enrichment ratio is ≤ 0.25.

Take WQRI: the enrichment ratio was ≤ 0.25.

Consider FNMY, for which the enrichment ratio is ≤ 0.25.

Consider EMGW, for which the enrichment ratio was ≤ 0.25.

WDGY: the enrichment ratio was ≤ 0.25.

As to MGEY, the enrichment ratio was ≤ 0.25.

Turning to IFYC, the enrichment ratio is ≤ 0.25.

Regarding YYII, the enrichment ratio was ≤ 0.25.

Turning to MKNM, the enrichment ratio is ≤ 0.25.

In the case of RLRD, the enrichment ratio was ≤ 0.25.

Take KGTN: the enrichment ratio was ≤ 0.25.

Consider FRNM, for which the enrichment ratio was ≤ 0.25.

On to GMCG, for which the enrichment ratio is 7.32.

For RNVH, the enrichment ratio is ≤ 0.25.

As to TFYI, the enrichment ratio was ≤ 0.25.

For the variant SHIT, the enrichment ratio is ≤ 0.25.

As to KHPY, the enrichment ratio was ≤ 0.25.

Take TRYW: the enrichment ratio is ≤ 0.25.

In the case of DHKR, the enrichment ratio is ≤ 0.25.

In the case of PRSQ, the enrichment ratio was ≤ 0.25.

With EKPD, the enrichment ratio is ≤ 0.25.

As for YCPL, the enrichment ratio was ≤ 0.25.

Take ARNF: the enrichment ratio was ≤ 0.25.

Regarding ENWV, the enrichment ratio is ≤ 0.25.

As to AKFL, the enrichment ratio is ≤ 0.25.

Take PELR: the enrichment ratio is ≤ 0.25.

As to MVFW, the enrichment ratio is ≤ 0.25.

For the variant TAYK, the enrichment ratio was ≤ 0.25.

HWYR: the enrichment ratio is ≤ 0.25.

As to ICHW, the enrichment ratio is ≤ 0.25.

In the case of LKLD, the enrichment ratio is ≤ 0.25.

KQYS: the enrichment ratio was ≤ 0.25.

LSTV: the enrichment ratio was ≤ 0.25.

As for MLSP, the enrichment ratio is ≤ 0.25.

On to SFFC, for which the enrichment ratio was ≤ 0.25.

VIKP: the enrichment ratio is ≤ 0.25.

Regarding YLNN, the enrichment ratio was ≤ 0.25.

As for AGIM, the enrichment ratio is 11.8.

Regarding MTGC, the enrichment ratio was determined as 7.29.

As for HNLE, the enrichment ratio is ≤ 0.25.

Turning to FNNM, the enrichment ratio was ≤ 0.25.

Take HNYR: the enrichment ratio was ≤ 0.25.

As to TSIN, the enrichment ratio is ≤ 0.25.

With RYRE, the enrichment ratio is ≤ 0.25.

Take SHHW: the enrichment ratio is ≤ 0.25.

For the variant PWGW, the enrichment ratio is ≤ 0.25.

For the variant WCWY, the enrichment ratio is ≤ 0.25.

In the case of DPWN, the enrichment ratio is ≤ 0.25.

On to YWPW, for which the enrichment ratio was ≤ 0.25.

MRAK: the enrichment ratio is ≤ 0.25.

Turning to GVLE, the enrichment ratio is ≤ 0.25.

Regarding TVSQ, the enrichment ratio stood at 7.48.

In the case of WRCS, the enrichment ratio was ≤ 0.25.

For KVIQ, the enrichment ratio was ≤ 0.25.

For MKSA, the enrichment ratio is ≤ 0.25.

With ICMR, the enrichment ratio was ≤ 0.25.

Regarding PHAD, the enrichment ratio was ≤ 0.25.

NFRY: the enrichment ratio is ≤ 0.25.

For SLTS, the enrichment ratio was determined as 6.43.

DLMS: the enrichment ratio was ≤ 0.25.

Take IMTE: the enrichment ratio was ≤ 0.25.

In the case of GACL, the enrichment ratio is 4.87.

Regarding HHVS, the enrichment ratio was ≤ 0.25.

With PKLA, the enrichment ratio was ≤ 0.25.

Take FEGS: the enrichment ratio was ≤ 0.25.

On to IADR, for which the enrichment ratio is ≤ 0.25.

In the case of KLDP, the enrichment ratio was ≤ 0.25.

RSPI: the enrichment ratio is ≤ 0.25.

Turning to DQMH, the enrichment ratio was ≤ 0.25.

As to QIPD, the enrichment ratio is ≤ 0.25.

For FKDP, the enrichment ratio was ≤ 0.25.

As for RNCN, the enrichment ratio was ≤ 0.25.

On to REFR, for which the enrichment ratio is ≤ 0.25.

In the case of NPRN, the enrichment ratio is ≤ 0.25.

On to YSLI, for which the enrichment ratio came out at 8.59.

MRHN: the enrichment ratio was ≤ 0.25.

Regarding FTQR, the enrichment ratio is ≤ 0.25.

On to PENM, for which the enrichment ratio is ≤ 0.25.

For the variant TIDC, the enrichment ratio is ≤ 0.25.

Turning to KIVK, the enrichment ratio is ≤ 0.25.

On to LASA, for which the enrichment ratio is ≤ 0.25.

As to NAWQ, the enrichment ratio is ≤ 0.25.

For the variant VKCD, the enrichment ratio was ≤ 0.25.

Take TNDE: the enrichment ratio is ≤ 0.25.

Turning to WAAP, the enrichment ratio is ≤ 0.25.

For WHFD, the enrichment ratio is ≤ 0.25.

On to KAMR, for which the enrichment ratio is ≤ 0.25.

For the variant GTDN, the enrichment ratio was ≤ 0.25.

Turning to WDEY, the enrichment ratio was ≤ 0.25.

Consider VKHM, for which the enrichment ratio is ≤ 0.25.

With QIHF, the enrichment ratio is ≤ 0.25.

On to IHRP, for which the enrichment ratio is ≤ 0.25.

As for AWCT, the enrichment ratio is ≤ 0.25.

In the case of YHLS, the enrichment ratio is ≤ 0.25.

Turning to KMYN, the enrichment ratio was ≤ 0.25.

As to MMVN, the enrichment ratio was ≤ 0.25.

Take YANP: the enrichment ratio is ≤ 0.25.

Turning to GGDG, the enrichment ratio was ≤ 0.25.
